Data published in article PMC4336329 (PLoS ONE, 2015).
Screen size: about 310,000 compounds; about 14,000 (4.5%) showed an effect of 50% or more. The effect is printed as a negative number. Some of the results follow.

The compounds below were run against human ether-à-go-go-related gene (hERG) potassium channel (human, UniProt Q12809) (assay: primary screen, population patch clamp on CHO cells stably expressing hERG).
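Also: peak tail current of the secondary pulse compared with the same well before compound.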

human ether-à-go-go-related gene (hERG) potassium channel, sequence (Q12809 whole entry, looked up): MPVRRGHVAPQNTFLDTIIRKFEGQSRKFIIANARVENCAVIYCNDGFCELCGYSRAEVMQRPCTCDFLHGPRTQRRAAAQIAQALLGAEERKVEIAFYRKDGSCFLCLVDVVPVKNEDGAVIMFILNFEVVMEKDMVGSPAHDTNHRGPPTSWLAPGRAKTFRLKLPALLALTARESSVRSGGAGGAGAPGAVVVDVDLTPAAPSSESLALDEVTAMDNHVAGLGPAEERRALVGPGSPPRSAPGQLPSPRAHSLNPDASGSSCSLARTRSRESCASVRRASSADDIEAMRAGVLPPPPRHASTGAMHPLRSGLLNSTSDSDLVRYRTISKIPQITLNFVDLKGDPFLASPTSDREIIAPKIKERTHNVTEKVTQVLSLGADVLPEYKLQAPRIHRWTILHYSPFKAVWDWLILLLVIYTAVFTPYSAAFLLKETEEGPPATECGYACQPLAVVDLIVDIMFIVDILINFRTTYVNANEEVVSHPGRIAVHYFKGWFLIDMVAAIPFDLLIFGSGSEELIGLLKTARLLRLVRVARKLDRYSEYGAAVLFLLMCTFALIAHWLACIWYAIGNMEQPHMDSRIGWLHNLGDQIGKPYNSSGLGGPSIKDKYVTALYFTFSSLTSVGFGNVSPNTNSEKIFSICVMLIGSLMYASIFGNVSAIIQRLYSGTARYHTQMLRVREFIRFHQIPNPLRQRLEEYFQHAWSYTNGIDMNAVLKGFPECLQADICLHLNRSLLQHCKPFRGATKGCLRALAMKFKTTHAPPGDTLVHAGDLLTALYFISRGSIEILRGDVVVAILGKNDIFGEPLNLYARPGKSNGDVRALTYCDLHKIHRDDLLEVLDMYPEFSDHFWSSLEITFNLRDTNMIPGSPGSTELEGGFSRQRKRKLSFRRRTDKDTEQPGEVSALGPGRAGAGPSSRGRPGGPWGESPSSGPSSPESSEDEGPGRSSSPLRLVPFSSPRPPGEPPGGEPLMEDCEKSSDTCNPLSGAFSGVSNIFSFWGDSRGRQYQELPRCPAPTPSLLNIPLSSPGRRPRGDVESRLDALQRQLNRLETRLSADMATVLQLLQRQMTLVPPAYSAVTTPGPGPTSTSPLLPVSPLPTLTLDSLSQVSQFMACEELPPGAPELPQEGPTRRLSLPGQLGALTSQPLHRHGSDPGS

Structure (SMILES) | hERG current change (%, negative = inhibition) at 10uM [%]
CCOC(=O)c1nn(-c2ccc([N+](=O)[O-])cc2)cc1O | 2.65
O=C(Nc1ccccc1F)C1CCN(S(=O)(=O)c2cccc3nonc23)CC1 | 7.98
c1ccc2c(c1)-c1cccc3c1c-2cc1ccccc13 | 13.9
Cn1nnnc1SCC(=O)NCc1ccc2c(c1)OCO2 | 31.4
CCOc1ccc(N(C)C(=O)CCc2nnc3ccc(N4CCCCC4)nn23)cc1 | 3.74
CCn1c(=O)c(C(=O)Nc2ccc(C)cc2)c(O)c2ccccc21 | 18.1
FC(F)(F)C1=CC(c2ccc(Br)cc2)=NCCN1 | -25.2
CCCN(CC(=O)Nc1ccccc1OC)C(=O)CC1CCCC1 | -3.09
COc1ccc(N2CCN(C(CNC(=O)Oc3ccccc3)c3cccnc3)CC2)cc1 (stereo not shown) | -27.5
COC(=O)c1ccccc1NC(=O)COC(=O)[C@H](C)NC(N)=O | 19.3
COC(=O)NC(=S)Nc1ccc(Oc2ccc(Cl)cc2)c(Cl)c1 | 16.9
CC(C)c1ccc(NC(=O)c2ccc3c(c2)C(=O)N(Cc2cccnc2)C3=O)cc1 | -7.94
Cn1c2ccccc2n2c(=O)cc(-c3ccccc3)c(C#N)c12 | -4.72
Cc1ccccc1-c1nnc(CS(=O)(=O)c2ccccc2)o1 | -19.2
CCOC(=O)Cn1ncc2c3ccccc3n(CC(=O)OCC)c2c1=O | 13.2
C=CCNc1nnc(SCC(=O)N2CCCCC2)c2ccccc12 | -21.1
Cc1ccccc1NC1=CC(=O)CC(C)(C)C1 | -0.789
Cc1cc(C)c2[nH]c(O)c(N=Nc3ccc(C(=O)O)cc3)c2c1 | 22.7
Cc1c(NC(=O)CSc2nnnn2-c2ccc(C(=O)O)cc2)c(=O)n(-c2ccccc2)n1C | 20.8
COC(=O)C(C)Oc1cc(OC(C)C(=O)OC)c2c(-c3ccccc3)cc(=O)oc2c1 (stereo not shown) | -22.1
COc1ccc([N+](=O)[O-])cc1N(CC(=O)N1CCCCC1)S(C)(=O)=O | 10.5
O=C(Nc1ccc2c(c1)OCCO2)C1CCN(C(=O)c2ccc(F)cc2)CC1 | 3.73
CCn1ccnc1[C@@H]1C[C@H]2CN(c3ccccc3OC)C(=O)[C@]23CCCN13 | 19.8

Structure (SMILES) | hERG current change (%, negative = inhibition) at 10uM [%]
C/C(=N\NC(=O)c1nnn(-c2nonc2N)c1C(C)C)c1ccc2ccccc2c1 | 5.86
CCCCCCCC(=O)NNC(=O)Cc1ccccc1 | 0.497
COc1ccc(/C=C/C(=O)c2c(C)nc3ccccn23)cc1 | 3.6
Cc1cc(=O)n2c(sc3ccccc32)c1C#N | 12.9
CCCCn1ccc(O)c(Cc2ccc(F)cc2)c1=O | 10.7
CC(NC(=O)c1ccc(Cl)cc1)C(=O)N1CCCCC1 (stereo not shown) | 15.4
COc1cccc(CNC(=O)c2c[nH]n3c(=O)c(Cl)c(C)nc23)c1 | -2.28
O=C(NCC1CCCO1)C(c1ccccn1)N(Cc1ccccc1Cl)C(=O)CN1C(=O)c2ccccc2S1(=O)=O (stereo not shown) | 2.83
Cc1cc(NC(=O)Cc2ccccc2)c2ccccc2n1 | 14.2
O=S(=O)(c1ccc(F)cc1)c1snnc1-c1ccccc1 | 2.36
O=S(=O)(NCC1OCCc2ccccc21)c1ccccc1 (stereo not shown) | 7.12
CCOC(=O)c1c(C)[nH]c(C(=O)COC(=O)c2ccccn2)c1C | -17
Cc1ccsc1C(=O)Nc1ccccc1N1CCCC1 | -13.6
COC(=O)[C@H](CCSC)NC(=O)Nc1cc(OC)cc(OC)c1 | 14.5
COCc1c(C(=O)N2CCN(Cc3nc4ccccc4s3)CC2)oc2ccccc12 | -72.5
O=C(/C=C\c1ccc(-c2ccccc2)o1)c1ccccc1 | 3.16
Cc1cc2c(cc3c(=O)n(CC(=O)NCCCN4CC(C)CC(C)C4)ncn32)s1 (stereo not shown) | -53.4
O=C1NN(c2ccccc2)C(=O)/C1=C\c1coc2ccc(O)cc2c1=O | -16.7
COc1ccc(CCn2c(C(C)C)nc3c(c(=O)c4ccccc4n3C)c2=O)cc1 | -30
CCN(CC(=O)Nc1ccc(OC)cc1)C(=O)CSCC(=O)Nc1ccc(C)cc1 | -23.5
CCN(c1ccccc1)S(=O)(=O)c1ccc(C(=O)NNC(=O)c2ccccc2F)cc1 | -7.99
CC(C)CC(=O)Nc1ccc(S(=O)(=O)Nc2nccs2)cc1 | -6.26
CCOC(=O)c1ccc(NC(=O)CS(=O)(=O)c2cn(CC)c3ccccc23)cc1 | -2.2

Structure (SMILES) | hERG current change (%, negative = inhibition) at 10uM [%]
Cc1ccc(S(=O)(=O)NNC(=O)c2sc(=S)n(C)c2C)cc1 | 4.98
O=C(CSc1nnc(-c2ccccc2)c(-c2ccccc2)n1)NC1CCS(=O)(=O)C1 (stereo not shown) | 17.3
CC1(C)OCC(C2CC(c3ccccc3)NS(=O)(=O)O2)O1 (stereo not shown) | 25.9
COc1ccc(-c2c(C#N)c(N)nc3c2CCCC3)cc1OC | 12.5
CCc1ccc(NC(=S)N(CCCN2CCOCC2)Cc2ccco2)cc1 | -12.6
COc1ccc2oc3ccc(OC)cc3c(=O)c2c1 | -6.52
COCCn1c(SCC(=O)NC2CCCCC2)nnc1-c1ccncc1 | 5.92
O=C(CSc1ncn(-c2ccccc2)n1)NCc1ccccc1 | -20.3
Cc1ccc2nc(C)cc(C(=O)N3CCCC(CO)(Cc4ccccc4C)C3)c2c1 (stereo not shown) | -4.66
COc1cc(CNC2CCCCCC2)cc(OC)c1 | -9.7
CCCCCn1c(CCNC(=O)CCC)nc2ccccc21 | -57.2
Cc1ccc(S(=O)(=O)NC2CCCC2)cc1C | -9.68
S=C(NCc1ccc2c(c1)OCO2)Nc1ccc2nsnc2c1 | 18.1
Cc1ccccc1NC(=O)Cc1nnc(SCc2ccc(Cl)c(Cl)c2)n1C | 0.81
O=C(C1CC(=O)N(C2CCCCC2)C1)N1CCN(c2ccccc2)CC1 (stereo not shown) | -10.9
COCC(=O)N(Cc1cc2cccc(C)c2[nH]c1=O)c1ccccc1 | 8.99
CNc1c([N+](=O)[O-])cnn1-c1cccc(Cl)n1 | 14.4
NC(=O)CSc1nnnn1-c1ccccc1Cl | 6.07
O=C(CSc1nnc(-c2cccnc2)o1)Nc1nccs1 | 8.81
Cc1ccccc1-c1nc2cc(NC(=O)C3CC3)ccc2o1 | 7.97
Cc1csc(SCC(=O)Nc2cccc3nsnc23)n1 | -14.8
COc1cc(/C=C/C(=O)NCc2cccnc2)cc(OC)c1OC | 0.841
CCCC1=NCCn2cccc21.O=C(O)/C=C/C(=O)O | 6.81

Structure (SMILES) | hERG current change (%, negative = inhibition) at 10uM [%]
O=C(NCc1ccco1)C1CCN(S(=O)(=O)N2CCC3(CC2)OCCO3)CC1 | -2.55
COc1ccc(C(=O)Nc2nnc(S(=O)(=O)Cc3ccc(F)cc3)s2)cc1 | 12.1
CCOC(=O)Cc1nnc(NC(=O)Nc2ccccc2)s1 | 2.47
C=CCN1CC(O)=C(c2ccccc2)C1=N | 7.37
C(=N\N1CCN(Cc2ccccc2)CC1)/c1ccccc1 | -1.37
Cc1ccccc1C(=O)N=c1c(C#N)cc2c(=O)n3cccc(C)c3nc2n1Cc1ccco1 | -46.2
CCc1nn(CC(=O)N2CCC3(CC2)OCCO3)c(=O)c2cccn12 | 16.7
Cc1ccc(S(=O)(=O)Nn2cnnc2)cc1 | 25.2
Cc1ccc(NC(=S)NCCC2=CCCCC2)cc1 | -13.7
COc1ccc(Cl)cc1NC(=O)CSc1nc2sccc2c(=O)[nH]1 | 25.2
O=C(CCc1ccccc1)N1CCCN(C(=O)CCc2ccccc2)CC1 | -51.5
CN1C(=O)NC2(O)C(=O)c3ccccc3C12O (stereo not shown) | 4.48
CCN(CC)CCNC(C(=O)Nc1cc(C(F)(F)F)ccc1Cl)c1ccccc1 (stereo not shown) | -76.4
O/N=C(\c1ccc(Cl)cc1)c1cc2ccccc2o1 | 9.58
O=C(NC(NC(=O)c1ccccc1)C(=O)c1ccccc1)c1ccccc1 | 13.3
COc1cc(C2Nc3ccc4ncccc4c3C3=C2C(=O)CCC3)cc(OC)c1O (stereo not shown) | 12.9
CCCCSc1nnc(-c2cc(Br)ccc2N)c(=O)[nH]1 | -10.9
COc1cc2nc(CN(C)Cc3ccc(F)cc3)[nH]c(=O)c2cc1OC | -13.5
CCOC(=O)C1(Cc2cccc(F)c2)CCN(Cc2cnn(CC)c2)CC1 | -32.2
COc1ccc(/C=N/NC(=O)Cc2n[nH]c(=O)[nH]c2=O)cc1 | 31.4
O=C(COc1ccc([N+](=O)[O-])cc1Cl)NCCc1ccccc1 | -41.8
CCOC(=O)[C@H]1[C@H]2COc3ccc(C)cc3[C@@H]2N2C(=O)CN(Cc3ccc(Cl)cc3)C(=O)[C@@]12C | 1.93
